Test results from paper PMC6919601, “Identification of Plasmodium dipeptidyl aminopeptidase allosteric inhibitors by high throughput screening” (PLoS ONE, 2019).
Screen size: about 110,000 compounds; about 230 (0.21%) showed an effect of 50% or more. The list shows a part of the results.
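Note: 30 min substrate incubation versus DMSO and 10 µM JCP410 controls.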

Each molecule was assayed against DPAP1 (Plasmodium falciparum, UniProt Q8IIJ9) (assay: primary screen, percent inhibition; read by cleavage of a fluorogenic dipeptide substrate; higher = more effect of the substance).
Sequence of DPAP1 (Q8IIJ9 whole entry, looked up): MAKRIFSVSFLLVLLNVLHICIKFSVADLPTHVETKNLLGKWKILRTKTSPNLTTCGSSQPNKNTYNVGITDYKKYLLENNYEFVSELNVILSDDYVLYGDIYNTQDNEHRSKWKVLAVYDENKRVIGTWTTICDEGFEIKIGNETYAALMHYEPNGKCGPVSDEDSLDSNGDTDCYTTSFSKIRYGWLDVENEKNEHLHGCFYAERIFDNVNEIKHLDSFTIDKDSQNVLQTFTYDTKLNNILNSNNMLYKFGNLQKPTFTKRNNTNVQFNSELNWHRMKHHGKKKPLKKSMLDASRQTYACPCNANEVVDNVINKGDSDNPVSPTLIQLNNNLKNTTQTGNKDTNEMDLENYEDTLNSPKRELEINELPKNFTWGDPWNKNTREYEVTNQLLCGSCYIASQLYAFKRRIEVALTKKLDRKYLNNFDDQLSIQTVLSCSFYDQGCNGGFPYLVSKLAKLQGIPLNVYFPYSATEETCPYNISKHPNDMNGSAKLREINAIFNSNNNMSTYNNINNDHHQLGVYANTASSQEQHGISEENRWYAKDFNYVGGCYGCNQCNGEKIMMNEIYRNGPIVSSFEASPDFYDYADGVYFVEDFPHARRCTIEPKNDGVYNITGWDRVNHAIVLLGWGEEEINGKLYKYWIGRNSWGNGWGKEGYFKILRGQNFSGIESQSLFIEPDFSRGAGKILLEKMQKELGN
Parameters: species or system P. falciparum D10 trophozoite lysates; single well
For `CCS(=O)(=O)N1CCC(C(=O)NCCCN2CCC(C)CC2)CC1`, the “% Inhibition @ 10 uM” value was -1.21%. In the case of `Cc1nn(CC(=O)N2CCOCC2)c(=O)c2cccn12`, the “% Inhibition @ 10 uM” value is reported as -11.7%. For `COc1cccc(C(=O)COc2cccc(N3C(=O)C4C5C=CC(C6CC56)C4C3=O)c2)c1` (centres unmarked), the “% Inhibition @ 10 uM” value was -2.28%. With `Cc1nc2c3ccccc3n3c(CCCC(=O)NCCCN(C)Cc4ccccc4)nnc3n2n1` the “% Inhibition @ 10 uM” value was -6.52%. In the case of `CC(C)Cn1cc(NC(=O)N(CCCN2CCOCC2)Cc2ccco2)c2ccccc2c1=O`, the “% Inhibition @ 10 uM” value is reported as -0.171%. With `N#Cc1nc(COc2ccccc2)oc1NCCCn1ccnc1` the “% Inhibition @ 10 uM” value was -5.63%. `O=C(c1ccncc1)N1C2C=CC(C2)C1(C(F)(F)F)C(F)(F)F` (centres unmarked) was tested, and the “% Inhibition @ 10 uM” value was 3.54%. For `CCOc1ccc2nc(NC(=O)CC(c3ccc(OC)cc3)n3cccc3)sc2c1` (centres unmarked), the “% Inhibition @ 10 uM” value was -0.72%. With `O=C(COc1ccc(Br)cc1)Nc1ccc(CN2CCCCC2)cc1` the “% Inhibition @ 10 uM” value was 0.661%. With `CCc1cc2c(cc3c(=O)n(CCCC(=O)NCc4ccccc4)ncn32)s1` the “% Inhibition @ 10 uM” value was 0.0198%. For `CCCn1c(=N)c(C(=O)NCCN2CCOCC2)cc2c(=O)n3cc(C)ccc3nc21`, the “% Inhibition @ 10 uM” value was -5.14%. For `CCOc1ccc(CCNC(=O)C2CC(=O)N(CCc3ccccc3)C2)cc1OCC` (centres unmarked), the “% Inhibition @ 10 uM” value was -7.35%. `COc1cc2c(cc1OC)C(c1ccccc1)=NC1(CCCC1)C2` was tested, and the “% Inhibition @ 10 uM” value was -4.24%. `C=C(C)Cn1c(CCNC(=O)C2CCCCC2)nc2ccccc21` was tested, and the “% Inhibition @ 10 uM” value was 4.8%. For `CC(=O)Nc1nc2cc(Cl)c(C)cc2s1`, the “% Inhibition @ 10 uM” value was -4.49%. `COC(=O)c1cc(OC)c(OC)cc1NC(=O)c1ccc([N+](=O)[O-])cc1` was tested, and the “% Inhibition @ 10 uM” value was -1.76%. In the case of `CCCCN(CC)CCNC(=O)C1CCCN(c2ncnc3c2nc2n3CCCCC2)C1` (centres unmarked), the “% Inhibition @ 10 uM” value is reported as 5.7%. In the case of `COc1cccc(NC(=O)c2cccnc2)c1`, the “% Inhibition @ 10 uM” value is reported as -0.294%. For `Cc1[nH]c(=O)n(Cc2ccccc2)c(=O)c1S(=O)(=O)NCc1ccccc1`, the “% Inhibition @ 10 uM” value was -2.28%. With `Cc1ccc(-c2noc(CSc3nnc(-c4ccncc4)n3C)n2)cc1` the “% Inhibition @ 10 uM” value was -0.45%. For `COc1ccc(Cl)cc1S(=O)(=O)N1CCCCC1`, the “% Inhibition @ 10 uM” value was -0.711%. In the case of `CN(C)c1ccc(C2Nc3ccc4ncccc4c3C3=C2C(=O)CCC3)cc1` (centres unmarked), the “% Inhibition @ 10 uM” value is reported as 3.65%. `Cc1ccc2c(c1)C(NC(=O)/C=C/c1ccco1)CC1(CCCCC1)O2` (centres unmarked) was tested, and the “% Inhibition @ 10 uM” value was -3.21%. With `O=C(O)c1cc(O)nc2ccc(Br)cc12` the “% Inhibition @ 10 uM” value was 1.7%. `COc1cc2c(cc1OC)C(COc1cccc(C(F)(F)F)c1)N(C(=O)c1ccco1)CC2` (centres unmarked) was tested, and the “% Inhibition @ 10 uM” value was -0.928%. In the case of `CC(C)(C)OC(=O)N1CCC(C(=O)N[C@@H](Cc2ccc3ccccc3c2)C(=O)N[C@@H](COCc2ccccc2)C(=O)CO)CC1`, the “% Inhibition @ 10 uM” value is reported as 10.2%.
